Experimental data as given in PubChem BioAssay AID720708 (National Center for Advancing Translational Sciences (NCATS), 2013).
About 660 (0.18%) of roughly 360,000 compounds were called active. The inconclusive results got no clear call from the source; some entries with a clear call stand among them for comparison. Calls come from the whole dose curve; as a rule, active = well fitted inhibition curve with a large enough effect; inconclusive = small, poorly fitted or top-dose-only effect; inactive = no such curve, though single readings can be large or run the other way. Potencies of inconclusive entries are left out as doubtful fits.
% is set by controls: 0 for no effect and ±100 for the full control effect; potency is the fitted concentration of half-maximal effect; tags give direction and shape of the fitted curve.
Note: nearly all actives have a fitted effect of over 45% in size.

These molecules were tested against Rap guanine nucleotide exchange factor 4 (Homo sapiens) (UniProt Q8WZA2) (assay: qHTS for Antagonist of cAMP-regulated guanine nucleotide exchange factor 2 (EPAC2): primary screen). Conditions: EPAC2 GEF exchange of Rap1B-BODIPY-GDP, fluorescence; activity, negative = inhibition: at 114 µM (top of the series) unless noted.
UniProt Q8WZA2, sequence (Q8WZA2 whole entry, looked up): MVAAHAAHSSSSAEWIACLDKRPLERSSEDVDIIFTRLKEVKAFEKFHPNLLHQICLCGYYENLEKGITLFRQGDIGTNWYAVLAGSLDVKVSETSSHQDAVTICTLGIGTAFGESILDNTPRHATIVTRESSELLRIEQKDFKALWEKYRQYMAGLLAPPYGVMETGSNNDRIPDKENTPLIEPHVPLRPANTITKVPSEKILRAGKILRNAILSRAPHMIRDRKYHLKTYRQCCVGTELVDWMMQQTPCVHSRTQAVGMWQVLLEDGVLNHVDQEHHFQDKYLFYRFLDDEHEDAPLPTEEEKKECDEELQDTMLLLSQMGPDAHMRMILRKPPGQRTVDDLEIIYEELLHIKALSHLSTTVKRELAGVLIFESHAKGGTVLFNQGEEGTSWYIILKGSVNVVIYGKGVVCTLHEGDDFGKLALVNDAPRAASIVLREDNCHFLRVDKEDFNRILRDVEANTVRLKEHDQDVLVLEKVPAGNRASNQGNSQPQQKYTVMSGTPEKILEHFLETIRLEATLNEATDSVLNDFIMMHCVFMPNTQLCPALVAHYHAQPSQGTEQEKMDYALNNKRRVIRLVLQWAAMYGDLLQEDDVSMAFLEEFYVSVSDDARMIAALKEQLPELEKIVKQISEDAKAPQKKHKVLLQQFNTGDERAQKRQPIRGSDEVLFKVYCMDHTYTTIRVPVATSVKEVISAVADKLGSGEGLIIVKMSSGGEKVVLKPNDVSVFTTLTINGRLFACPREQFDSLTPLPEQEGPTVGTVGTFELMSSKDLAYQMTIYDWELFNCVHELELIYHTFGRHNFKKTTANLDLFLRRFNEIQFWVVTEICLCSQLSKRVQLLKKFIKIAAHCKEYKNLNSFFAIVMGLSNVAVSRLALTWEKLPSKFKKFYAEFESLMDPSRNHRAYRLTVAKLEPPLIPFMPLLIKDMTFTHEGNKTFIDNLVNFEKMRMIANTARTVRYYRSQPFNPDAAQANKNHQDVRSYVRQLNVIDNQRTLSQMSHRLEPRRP
For CCN(C[C@H]1N[C@@](CC)(C(=O)OC)[C@H]2C(=O)N(Cc3ccccc3)C(=O)[C@@H]12)C(=O)Nc1ccc(C(F)(F)F)cc1, the activity, negative = inhibition was inconclusive: -18% [inhibitor]. For CCN(CC)C(=O)Cn1c(C)c(/C=C/c2cc[n+](C)cc2)c2ccccc21, the “activity, negative = inhibition” value was inactive: 26.9%. In the case of c1ccc(-c2ccc(-c3csnn3)cc2)cc1, the “activity, negative = inhibition” value is reported as inactive: 0.379%. With O=Cc1c[nH]c2cccc(OCc3ccccc3)c12 the “activity, negative = inhibition” value was inactive: -18.5%. With O=S(=O)(NCCCCCNS(=O)(=O)c1ccccc1)c1ccccc1 the “activity, negative = inhibition” value was inactive: -2.88%. CCOC(=O)C1CCCCN1Cc1cn(C)nc1-c1ccccc1F (stereo unspecified) was tested, and the Potency was inconclusive [inhibitor, partial curve]. In the case of COC(CNC(=O)c1ccc2c3c(onc13)-c1ccccc1C2=O)OC, the Potency is reported as inconclusive [inhibitor, full curve, poor fit]. Cc1cc(C)c(N=C2CCCN2Cc2ccccc2)c(C#N)c1 was tested, and the Potency was inconclusive [inhibitor, partial curve]. In the case of Cc1ccc2c(c1)C(=O)C(=O)N2Cc1ccc(Cl)cc1, the “activity, negative = inhibition” value is reported as inactive: -22.4%. Cc1nnc(SCCn2c(N3CCC(Cc4ccccc4)CC3)nc3c2c(=O)[nH]c(=O)n3C)s1 was tested, and the Potency was inconclusive [inhibitor, full curve, poor fit]. O=P(OC1CCCCC1)(OC1CCCCC1)C(Nc1ccccc1)c1cccnc1 (stereo unspecified) was tested, and the Potency was inconclusive [inhibitor, partial curve]. In the case of COc1ccc(CNC(=O)COC(=O)c2ccccc2C(=O)c2ccccc2)cc1, the Potency is reported as inconclusive [inhibitor, partial curve]. With O=C(Cc1ccccc1)NCC(=O)OC(c1ccccc1)c1ccccc1 the Potency was inconclusive [inhibitor, partial curve]. For COc1ccccc1C1CC(=O)Oc2cc(C)cc(C)c21 (stereo unspecified), the Potency was inconclusive [inhibitor, full curve, poor fit]. With Cc1ccc(S(=O)(=O)Nc2cc(-c3ccccc3)nn2C)cc1 the “activity, negative = inhibition” value was inactive: 2.96%. For CCCc1c(-c2ccc(F)cc2F)ncn1Cc1ccccc1OC, the Potency was inconclusive [inhibitor, partial curve]. In the case of O=C(O)c1ccccc1NS(=O)(=O)c1ccc(N/N=C/c2cccc(O)c2O)c([N+](=O)[O-])c1, the “activity, negative = inhibition” value is reported as inactive: -25.8%. With CCOC(=O)c1c(C)noc1-c1ccc(Br)o1 the Potency was inconclusive [inhibitor, partial curve]. With Oc1ccc(N=Nc2ccccc2)cc1 the “activity, negative = inhibition” value was inactive: -0.998%. CN(C)C(=O)c1cccc(-c2cnc3c(NC=O)cc(-c4cccc(C(F)(F)F)c4)cn23)c1 was tested, and the Potency was inconclusive [inhibitor, full curve]. With CN(C)CCOCCP(=O)(c1ccccc1)c1ccccc1 the “activity, negative = inhibition” value was inactive: -3.7%. CCC(=O)NC(c1ccco1)c1cc(Cl)c2cccnc2c1O (stereo unspecified) was tested, and the Potency was inconclusive [inhibitor, partial curve, poor fit]. Cc1ccc(NC(=O)CCC(=O)N/N=C/c2coc3ccccc3c2=O)cc1 was tested, and the “activity, negative = inhibition” value was inactive: 22%. In the case of COC(=O)c1ccc2c(c1)C(=O)/C(=C/c1ccc(C)cc1)O2, the “activity, negative = inhibition” value is reported as inactive: -4.64%. CNC(=S)N/N=C/c1ccc(-c2cc([N+](=O)[O-])ccc2Cl)o1 was tested, and the Potency was inconclusive [inhibitor, single point]. For Cc1ccccc1S(=O)(=O)c1c(C)cc(C)n(CC(C)C)c1=O, the Potency was inconclusive [inhibitor, partial curve]. In the case of C#Cc1ccc([C@@H]2C=C(C(=O)Nc3ccccc3)O[C@H](OCC)[C@H]2CCCO)cc1, the Potency is reported as inconclusive [inhibitor, full curve]. With CCOc1cc(S(=O)(=O)n2cnc(C)c2)ccc1Cl the Potency was inconclusive [inhibitor, single point]. In the case of c1ccc(-c2nnc(CSc3ccc4c(c3)OCCO4)o2)cc1, the Potency is reported as inconclusive [inhibitor, partial curve]. With CCOC(=O)c1c(C)[nH]c(C)c1C(=O)CSc1nc2ccccc2c(=O)n1-c1ccc(F)cc1 the Potency was inconclusive [inhibitor, full curve]. In the case of CCN(CCNC(=O)C1CCN(S(=O)(=O)c2cccc3cccnc23)CC1)c1ccccc1, the Potency is reported as inconclusive [inhibitor, single point]. With CCOC(=O)[C@H](C)N1[C@H](C)[C@H](c2ccccc2)Oc2ccc(Cl)cc2S1(=O)=O the Potency was inconclusive [inhibitor, full curve, poor fit]. COc1ccc(C2c3ccsc3CCN2C(=O)C(C)(C)C)cc1 (stereo unspecified) was tested, and the Potency was inconclusive [inhibitor, partial curve]. With Cc1cc(NC(=O)CSc2nccn2-c2cccc(C)c2C)no1 the Potency was inconclusive [inhibitor, full curve, poor fit]. O=C1/C(=C/C=C/c2ccco2)SC(=S)N1NS(=O)(=O)c1ccccc1 was tested, and the Potency was inconclusive [inhibitor, partial curve]. In the case of Cc1ccccc1N1CCN(C(=O)NCc2cccc(Cl)c2)CC1, the Potency is reported as inconclusive [inhibitor, partial curve]. In the case of O=C(CCl)N1c2ccccc2OCC1c1ccccc1 (stereo unspecified), the “activity, negative = inhibition” value is reported as inactive: -0.996%. Cc1cccc(N/C=C(\[N+](=O)[O-])S(=O)(=O)c2ccccc2)c1 was tested, and the Potency was inconclusive [inhibitor, partial curve]. With O=C(CC(Sc1ccccc1)c1cccs1)c1ccco1 (stereo unspecified) the Potency was inconclusive [inhibitor, partial curve]. O=C(/C=C/c1ccccc1)c1ccc2c(c1)OCO2 was tested, and the Potency was inconclusive [inhibitor, single point]. With O=C(NCc1ccccn1)C1CN(S(=O)(=O)c2ccccc2)CCN1S(=O)(=O)c1ccccc1 (stereo unspecified) the activity, negative = inhibition was inconclusive: -4.15% [inhibitor]. For Cc1ccc(CCNS(=O)(=O)c2ccc3c(c2)N(C)CCO3)cc1, the Potency was inconclusive [inhibitor, partial curve]. In the case of C#Cc1ccc([C@@H]2C=C(C(=O)NCc3nc4ccccc4[nH]3)O[C@H](OCC)[C@H]2CCCO)cc1, the Potency is reported as inconclusive [inhibitor, full curve]. For Cc1cc(NS(=O)(=O)c2ccc(NC(=O)c3cc4c(=O)n5ccccc5nc4s3)cc2)nc(C)n1, the “activity, negative = inhibition” value was inactive: -11.7%. Cc1ccc(F)c(S(=O)(=O)NC(=O)C2(C)CCN2C(=O)C2(c3ccc(Cl)cc3)CCC2)c1 (stereo unspecified) was tested, and the Potency was active: 44.7 µM. With C[C@@H]1CN([C@H](C)CO)C(=O)CCCn2nncc2CO[C@H]1CN(C)Cc1ccc(C(F)(F)F)cc1 the “activity, negative = inhibition” value was inactive: 7.06%. For O=C(Cc1ccccc1)Nc1ncnc2c1C(c1ccccc1)c1c(ccc3ccccc13)O2 (stereo unspecified), the Potency was inconclusive [inhibitor, single point]. O=S1(=O)CCOC[C@H](Cc2ccccc2)N1Cc1ccccc1Br was tested, and the Potency was inconclusive [inhibitor, partial curve]. With O=C(CN1C(=O)CNC1=O)Nc1cc(Cl)cc(Cl)c1 the Potency was inconclusive [inhibitor, partial curve]. In the case of COc1ccc(-c2ccccc2[C@H]2[C@@H]3C=CC[C@@H](C)[C@@H]3C(=O)N2Cc2ccccc2)cc1, the Potency is reported as inconclusive [inhibitor, full curve]. With CCOC(=O)C1CCCN(/C=C2\SC(=S)N(CC)C2=O)C1 (stereo unspecified) the Potency was inconclusive [inhibitor, full curve, poor fit]. In the case of COc1ccc([C@H]2[C@H]3C=CC[C@@H](C)[C@@H]3C(=O)N2Cc2ccccc2)cc1Cl, the Potency is reported as inconclusive [inhibitor, full curve]. In the case of CCCCc1c(-c2ccccc2F)ncn1CCc1ccccc1OC, the Potency is reported as active: 42.3 µM. With O=S(=O)(Nc1ncnc2scc(-c3ccc(F)cc3)c12)c1cc(F)ccc1F the Potency was inconclusive [inhibitor, partial curve]. With COC(=O)CC(c1ccccc1F)N1Cc2ccccc2C1=O (stereo unspecified) the Potency was inconclusive [inhibitor, partial curve, poor fit]. In the case of N#Cc1c(-c2ccccc2)nc(SCC(=O)NC2CCCCC2)[nH]c1=O, the Potency is reported as inconclusive [inhibitor, partial curve]. NC(=O)c1ccc(N=C2C(=O)Nc3ccc([N+](=O)[O-])cc32)cc1 was tested, and the Potency was inconclusive [inhibitor, partial curve]. For CSc1ccc(CN2C(=O)C(C)Oc3c(C(C)=O)cccc32)cc1 (stereo unspecified), the Potency was inconclusive [inhibitor, partial curve]. With O=C(Nc1nc(-c2ccccc2)cs1)c1ccccc1NS(=O)(=O)c1ccc(F)cc1 the Potency was inconclusive [inhibitor, partial curve]. COc1ccc(C)cc1S(=O)(=O)N(CC(=O)Nc1cccc([N+](=O)[O-])c1)c1ccc(C)c(C)c1 was tested, and the Potency was inconclusive [inhibitor, single point]. With CCSS(=O)(=O)c1cccc2cccnc12 the Potency was inconclusive [inhibitor, single point]. Clc1ccc(-c2nc3ccc(Cl)cn3c2Cc2ccsc2)cc1 was tested, and the Potency was inconclusive [inhibitor, single point]. For COc1cccc(CN2CCCC(C(=O)Nc3ccc(-c4cscn4)cc3)C2)c1 (stereo unspecified), the Potency was inconclusive [inhibitor, partial curve]. For CC1(c2nc3ccccc3[nH]2)CCCC2=Nc3ccccc3CN21 (stereo unspecified), the “activity, negative = inhibition” value was inactive: 10.8%. O=[N+]([O-])c1ccc(NCCCNS(=O)(=O)c2ccc(Cl)cc2)c(Cl)c1 was tested, and the “activity, negative = inhibition” value was inactive: -9.76%. For Cc1ccc(NC(=O)NC2CCCCCCC2)cc1C, the Potency was inconclusive [inhibitor, partial curve].
